Test results reported in the supplement of paper PMC10126150.
Sequences with one replicate were seen in a single cluster, so their values are uncertain.

Test system: ATP
Test: switch fluorescence ratio, 500 uM ATP over buffer (Cy3 cluster intensity, sum of 5 cycles each) (fold (ratio)); higher = stronger signal-on switching upon ATP binding; sequences stand for … in TCGTCGGCAGCGTCAGATGTGTATAAGAGACAGTTTTTTTTTTTTTTTTTTTTTTTTT…TC
Details: aptamer strand: ATP DNA aptamer (quencher-CACCTGGGGGAGTATTGCGGAGGAAGG + anchor), 100 nM annealed; ATP concentration: 500 uM; one replicate
Outline: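 Five buffer/ATP imaging cycles were run on Cy3-labelled switching-strand clusters on a modified Illumina MiSeq flow-cell, with NaOH stripping and re-annealing between cycles. In each cycle, clusters annealed to 100 nM quencher-labelled ATP aptamer were imaged in selection buffer, then after 15 min with 500 uM ATP at 22 °C. Per cluster, the fluorescence ratio is summed target-cycle over summed buffer-cycle Cy3 intensity, averaged per switch-domain sequence. Only clusters within 100-1000 RFU were kept.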
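Further: ATP exposure 15 min at 22 °C before imaging.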

## TGCTCATATT
  switch fluorescence ratio: 0.973

## ATAAGATCGT
  switch fluorescence ratio: 1.02

## TATCGGAGC
  switch fluorescence ratio: 0.959

## AGTTTAATCT
  switch fluorescence ratio: 1.02

## CAGCGCAGTG
  switch fluorescence ratio: 0.981

## TGGGGCTCAT
  switch fluorescence ratio: 0.97

## GCATGGGGAG
  switch fluorescence ratio: 1.02

## GATGTCTTTG
  switch fluorescence ratio: 1.01

## TTGTGGGAA
  switch fluorescence ratio: 0.974

## TGAATTAATC
  switch fluorescence ratio: 0.972

## TCGGTAAAAA
  switch fluorescence ratio: 1.01

## ATACGGTTGG
  switch fluorescence ratio: 1.03

## TTAGTTAACA
  switch fluorescence ratio: 0.993

## CAAAACACGT
  switch fluorescence ratio: 1.01

## CGGTGGTCGT
  switch fluorescence ratio: 1.02

## ATGCGCTCG
  switch fluorescence ratio: 0.917

## TCCGAATTAT
  switch fluorescence ratio: 0.977

## TCTACGAAGT
  switch fluorescence ratio: 1.27

## ACGTGGGCA
  switch fluorescence ratio: 0.963

## GGAGAAAAGC
  switch fluorescence ratio: 0.996

## GGATAGTCGA
  switch fluorescence ratio: 1.04

## CCTGGAGTTC
  switch fluorescence ratio: 1.02

## CATCAATGAA
  switch fluorescence ratio: 0.992

## GGATCGAGTA
  switch fluorescence ratio: 0.999

## ATGAGGATTC
  switch fluorescence ratio: 1.02

## ATGTCCTCTG
  switch fluorescence ratio: 0.995

## TCATCCTGGG
  switch fluorescence ratio: 1.08

## GGGGGCATGC
  switch fluorescence ratio: 1.01

## GCAGGGGAAC
  switch fluorescence ratio: 1.04

## CTTGGACCTT
  switch fluorescence ratio: 1.17

## AGTCTTAGAG
  switch fluorescence ratio: 0.967

## ATAACTTAGT
  switch fluorescence ratio: 0.986

## TGATACTTT
  switch fluorescence ratio: 0.979

## CATCCGAGTG
  switch fluorescence ratio: 1.53

## TCGATTAGGT
  switch fluorescence ratio: 0.996

## TGGGCCGATT
  switch fluorescence ratio: 0.994

## TTGAACCGTC
  switch fluorescence ratio: 1.01

## AATGGTGG
  switch fluorescence ratio: 0.993

## GAGTCTTAGT
  switch fluorescence ratio: 1

## TTGTAGTGGT
  switch fluorescence ratio: 1.02

## ATGACAATGA
  switch fluorescence ratio: 0.99

## CTAGGAAGAT
  switch fluorescence ratio: 0.995

## ATTGTTGGAA
  switch fluorescence ratio: 0.95

## TTCGTACGGC
  switch fluorescence ratio: 1.04

## GGTCTTCGG
  switch fluorescence ratio: 1.01

## TGGAGGATGG
  switch fluorescence ratio: 0.971

## CGGGCGAAGC
  switch fluorescence ratio: 1.01

## TGGCTAGAAT
  switch fluorescence ratio: 0.992

## TGAGTTAAAA
  switch fluorescence ratio: 1.03

## TCGGGATCAG
  switch fluorescence ratio: 0.974

## TTCTATCTGA
  switch fluorescence ratio: 0.966

## GATACGTTG
  switch fluorescence ratio: 1

## GTATATGAAT
  switch fluorescence ratio: 0.992

## TATACGTAAG
  switch fluorescence ratio: 1.03

## TTTGCTGCGA
  switch fluorescence ratio: 0.974

## TAGAGTGTTT
  switch fluorescence ratio: 1.01

## TCTGGGAGAT
  switch fluorescence ratio: 1.07

## TCACCAGTCT
  switch fluorescence ratio: 1.02

## GTAAGCTCTA
  switch fluorescence ratio: 0.996

## TCCTTGTGTG
  switch fluorescence ratio: 1

## CGCCTGTTT
  switch fluorescence ratio: 1.29

## GCTGCACCTG
  switch fluorescence ratio: 0.998

## GGCTCCATAG
  switch fluorescence ratio: 1.13

## AATTCCGGAT
  switch fluorescence ratio: 0.983

## TATTCCTATT
  switch fluorescence ratio: 0.994

## ATGACGGAAA
  switch fluorescence ratio: 1.07

## TTTGTAAGCA
  switch fluorescence ratio: 1.01

## TAGGCATGTG
  switch fluorescence ratio: 0.982

## CAGTGGAGTC
  switch fluorescence ratio: 0.999

## GTCGGTACAT
  switch fluorescence ratio: 1.03

## TAATCATTTT
  switch fluorescence ratio: 0.978

## TATATTCTCT
  switch fluorescence ratio: 0.997

## TGCTTGTCAG
  switch fluorescence ratio: 0.976

## ATAGGTATG
  switch fluorescence ratio: 0.985

## ATATTTGCTG
  switch fluorescence ratio: 1.02

## GGTGATACCA
  switch fluorescence ratio: 1.03

## CGCATCGTGC
  switch fluorescence ratio: 1.19

## CGTGTCATGA
  switch fluorescence ratio: 1

## TTCTTAAACG
  switch fluorescence ratio: 1.02

## TGGGGGTACA
  switch fluorescence ratio: 1.01

## GTAGCTGAAG
  switch fluorescence ratio: 1.04

## TATGAAAGTT
  switch fluorescence ratio: 0.962

## CGCATGTTTA
  switch fluorescence ratio: 1.08

## AGGACGCAAT
  switch fluorescence ratio: 1.29

## AACACGTACT
  switch fluorescence ratio: 1.79

## CGCATACTTA
  switch fluorescence ratio: 3.72

## GTCGCTTGGG
  switch fluorescence ratio: 1.01

## CATTAAATGA
  switch fluorescence ratio: 1.04

## ATCCCTCCAG
  switch fluorescence ratio: 1.44

## GACAAAGTTT
  switch fluorescence ratio: 1.01

## ACGGGGAAGA
  switch fluorescence ratio: 1.09

## TCTTCAACAG
  switch fluorescence ratio: 2.01

## ATATAAGACG
  switch fluorescence ratio: 0.869

## TATTCAAAGA
  switch fluorescence ratio: 0.992

## CCTCTTGACC
  switch fluorescence ratio: 1.18

## GTCGAGGATC
  switch fluorescence ratio: 1.01

## GCTAGTTACG
  switch fluorescence ratio: 1.06

## GATTTCGAGC
  switch fluorescence ratio: 1.02

## TGCAATCAGA
  switch fluorescence ratio: 1.01

## TACTTGACT
  switch fluorescence ratio: 1.08

## GCAGACGACA
  switch fluorescence ratio: 1.55

## GATTAATCAT
  switch fluorescence ratio: 1.01

## GTTAGGGAGT
  switch fluorescence ratio: 0.988

## TACCGGTATT
  switch fluorescence ratio: 1.06

## GGACTCGTTG
  switch fluorescence ratio: 1.03

## AGTTGAGAGC
  switch fluorescence ratio: 1.03

## GCCATGGAGT
  switch fluorescence ratio: 1.04

## TCACAAGAGT
  switch fluorescence ratio: 0.981

## TGTTATTAAT
  switch fluorescence ratio: 0.987

## CGATCTATAA
  switch fluorescence ratio: 0.989

## ATTTACCTGC
  switch fluorescence ratio: 1

## GAGAGGCGAT
  switch fluorescence ratio: 0.996

## GGCGTGGTG
  switch fluorescence ratio: 1.45

## CGGCTGCTCG
  switch fluorescence ratio: 1.02

## TATAGCCTTG
  switch fluorescence ratio: 0.969

## CGCTCACATA
  switch fluorescence ratio: 1.09

## TTTGGCAAC
  switch fluorescence ratio: 1.04

## AACCCAGGCC
  switch fluorescence ratio: 1.04

## GAACTCCATA
  switch fluorescence ratio: 1.03

## CCCGGTCCTT
  switch fluorescence ratio: 1.02

## AATTAAAGAT
  switch fluorescence ratio: 0.959

## AGACAGACCC
  switch fluorescence ratio: 1.06

## TTGGTGCTAA
  switch fluorescence ratio: 0.986

## GTTAGGGTGC
  switch fluorescence ratio: 1.05

## AGCTTCTTTA
  switch fluorescence ratio: 1.02

## CTATTCTCAT
  switch fluorescence ratio: 0.983

## CGATCGTGGT
  switch fluorescence ratio: 1.02

## TATTCGCTCT
  switch fluorescence ratio: 1.01

## GGCGCAGAAT
  switch fluorescence ratio: 1.01

## GGTTCAGGTT
  switch fluorescence ratio: 1

## GCAAATTGAA
  switch fluorescence ratio: 0.98

## CCTTGATAGT
  switch fluorescence ratio: 1

## CGAGATGTTG
  switch fluorescence ratio: 1

## TAAGATTGCC
  switch fluorescence ratio: 1.06

## ACGTTTACGA
  switch fluorescence ratio: 1.08

## TCGATTGGAT
  switch fluorescence ratio: 1.01

## ACCCCCGTGG
  switch fluorescence ratio: 1.03

## TCTTGCGAC
  switch fluorescence ratio: 1.16

## TCCGACCAG
  switch fluorescence ratio: 1.28

## TGGTGGTGTT
  switch fluorescence ratio: 0.96

## ACGACTAGAA
  switch fluorescence ratio: 1.08

## ATGTGTGCTA
  switch fluorescence ratio: 1.03

## CCTAACATCA
  switch fluorescence ratio: 1.05

## CGGAATCTTT
  switch fluorescence ratio: 1.06

## GCCGGCGGGG
  switch fluorescence ratio: 0.975

## TTCAAGTCGG
  switch fluorescence ratio: 1.04

## TTCGATAGTG
  switch fluorescence ratio: 1.02

## CCCCGGCAGG
  switch fluorescence ratio: 1.27

## TGTATATCGA
  switch fluorescence ratio: 1.03

## CGGGTGCGCT
  switch fluorescence ratio: 0.998

## TGTATTTTGA
  switch fluorescence ratio: 1.03

## GATGAAGGGT
  switch fluorescence ratio: 0.998

## ATGCTCCTAA
  switch fluorescence ratio: 1.05

## ATGATCGTTT
  switch fluorescence ratio: 0.946

## AAAATTGGCT
  switch fluorescence ratio: 1.08

## GTCGGTGGTA
  switch fluorescence ratio: 1.04

## AGCTGGGCGA
  switch fluorescence ratio: 1.02

## ATAGTATTCC
  switch fluorescence ratio: 1.08

## CTCTGGCCCA
  switch fluorescence ratio: 0.97

## CAGAATGTCC
  switch fluorescence ratio: 1.01

## ATGTTCCAGA
  switch fluorescence ratio: 0.979

## ACCAGGTCGC
  switch fluorescence ratio: 1.15

## TGCCAGATAG
  switch fluorescence ratio: 1.05

## GAACTCACG
  switch fluorescence ratio: 1.23

## CTCTTATCTA
  switch fluorescence ratio: 0.986

## GTTGGATGCG
  switch fluorescence ratio: 1.03

## GGACATCGGG
  switch fluorescence ratio: 0.996

## CTGGTAGAGA
  switch fluorescence ratio: 0.998

## TATATCGATT
  switch fluorescence ratio: 1.01

## CTCGAATGAC
  switch fluorescence ratio: 1.14

## AACCTGATGG
  switch fluorescence ratio: 1.04

## ACGATTTAA
  switch fluorescence ratio: 0.995

## CCAGGTGCAG
  switch fluorescence ratio: 1.38

## CCCCTGCGTT
  switch fluorescence ratio: 1.25

## CCGCCAGGGT
  switch fluorescence ratio: 1.93

## CGTCCTGACG
  switch fluorescence ratio: 0.959

## CCAAAGGGTA
  switch fluorescence ratio: 1.21

## GTACGGCATC
  switch fluorescence ratio: 1.14

## ACTATTTTTA
  switch fluorescence ratio: 1.01

## AGAGATCGAC
  switch fluorescence ratio: 1.01

## GATGTCATAG
  switch fluorescence ratio: 0.98

## GCGGGTTCAA
  switch fluorescence ratio: 0.984

## ACCCGAAGAA
  switch fluorescence ratio: 1.05

## TCCCGGCCAA
  switch fluorescence ratio: 1.2

## GAAGTAGTAC
  switch fluorescence ratio: 3.21

## TGGCCTTCAA
  switch fluorescence ratio: 0.943

## TAACACGTC
  switch fluorescence ratio: 1.09

## CTAGCTCCAT
  switch fluorescence ratio: 0.993

## AGGTTTGAGG
  switch fluorescence ratio: 0.981

## GGGGTGCAC
  switch fluorescence ratio: 1.04

## TGAAGTATTG
  switch fluorescence ratio: 1.01

## GGTGGTTACC
  switch fluorescence ratio: 1

## CAGGGCATCT
  switch fluorescence ratio: 1.04

## TACAATTCCC
  switch fluorescence ratio: 0.997

## GGGGAACGCT
  switch fluorescence ratio: 1.05

## AGATGAGACC
  switch fluorescence ratio: 0.989

## GAAGAATGAT
  switch fluorescence ratio: 0.973

## GAGACAATGC
  switch fluorescence ratio: 1.93

## TGGTAACTGG
  switch fluorescence ratio: 1.04

## TGACAGTCTC
  switch fluorescence ratio: 0.958

## AGTAAAGCGT
  switch fluorescence ratio: 0.955
